# According to PubChem BioAssay AID686978 (National Center for Advancing Translational Sciences (NCATS), 2013):
# Hit rate of the full screen: of about 420,000 compounds, about 64,000 (15%) were called active. This list was built around the results that the source calls inconclusive (neither active nor inactive); the mix of calls is not that of the screen. The call rests on the fitted dose curve; in most records, active means well fitted inhibition curve with a large enough effect; inconclusive means small, poorly fitted or top-dose-only effect; inactive means flat fitted curve, though single readings scatter. No potency is given beside an inconclusive call; the fits are too rough.
# Test: qHTS for Inhibitors of human tyrosyl-DNA phosphodiesterase 1 (TDP1): qHTS in cells in absence of CPT; further: nearly all actives have a fitted effect of over 55% in size
# Details: DT40 Tdp1-/- hTDP1 cells, no CPT, ATP luminescence, 48 h; activity change, negative = growth inhibition: at 46.2 µM (top of the series) unless noted
# Procedure, shortened: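 DT40 Tdp1-/-;hTDP1 cells, no CPT (DMSO vehicle only), 400 cells/well; compounds pin-transferred; ≥48 hr, 37 °C; CellTiter-Glo 30 min RT dark, luminescence read.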
# On the % scale 0 is the no-effect control and ±100 the full control effect; potency means the concentration at half of the fitted maximal effect; tags describe the fitted curve by direction and shape.
SMILES,Potency,"activity change, negative = growth inhibition"
Nn1c(Nc2ccccc2)nc2sc3c(c2c1=O)CCCC3,"inconclusive [inhibitor, partial curve]",
Cc1cc(N2C(=O)C=CC2=O)c([N+](=O)[O-])cc1C,active: 1.84 µM,
CN(C)C(=O)C(Sc1ccc(S(=O)(=O)N2CCCC2)cn1)c1ccccc1 (centres undefined),"inconclusive [inhibitor, single point]",
O=c1c2ccccc2sn1-c1ccccc1F,active: 2.91 µM,
CNC(=O)COc1coc(CN2CCN(C(=O)c3ccco3)CC2)cc1=O,,inactive: 16.2%
CCCC1CCc2c(c3ccccc3[nH]c2=O)O1 (centres undefined),"inconclusive [inhibitor, partial curve]",
COc1cccc(C(=O)Nc2ccccc2NC(=O)c2cccc(OC)c2)c1,"inconclusive [inhibitor, single point]",
NC(Cc1ccccc1)c1csc(NC(=O)Nc2ccccc2Oc2ccccc2)n1 (centres undefined),active: 20.6 µM,
COc1ccc(OC)c(-c2nc3c(C#N)c[nH]n3c2NC2CCCCC2)c1,"inconclusive [inhibitor, single point]",
CN(CC(=O)NCc1ccco1)S(=O)(=O)c1ccc2c(c1)n(C)c(=O)c(=O)n2C,,inactive: -1.66%
COc1ccc(/C=N/c2c(-c3ccco3)nc3ccccn23)cc1OC,"inconclusive [inhibitor, partial curve]",
COc1c2occc2c(OC(C)=O)c2c(=O)cc(C)oc12,"inconclusive [inhibitor, partial curve]",
CCNC(=O)C1(C)CCCN(Cc2ccc(-c3ccccc3)o2)C1 (centres undefined),active: 23.1 µM,
CC1CCN(CC(=O)Nc2ccc(S(=O)(=O)NC3CC3)cc2)CC1,,inactive: -27.5%
CCOc1cc(N2CCOCC2)c(OCC)cc1NC(=O)CC12CC3CC(CC(C3)C1)C2,active: 18.4 µM,
COc1cc(/C=C/CN2CCOc3ccc(C(O)c4cccnc4)cc3C2)ccc1O (centres undefined),"inconclusive [inhibitor, single point]",
CCCCCCSc1cccc(-c2nc3ccc(Cl)cn3c2NCc2ccccc2)c1,active: 23.1 µM,
CCC12CN3CC(CC)(CN(C1)C3c1c(O)ccc3ccccc13)C2=O (centres undefined),,inactive: -5.56%
Cc1cc(C(C)(C)C)oc1C(=O)N(CC(=O)NC1CCCC1)Cc1ccc(Cl)cc1,active: 14.1 µM,
CC1C=CCC2C(=O)N(c3cccc(C(=O)Nc4ccc(Br)cc4)c3)C(=O)C12 (centres undefined),,inactive: -25.3%
CCOc1cc(C)c(-c2onc(C(F)(F)F)c2-c2csc(C)n2)c(O)c1,"inconclusive [inhibitor, single point]",
CCNC(=O)C1(C)CCCN1C(=O)c1ccc(N(C)C)cc1 (centres undefined),,inactive: -3.34%
O=C(N/N=C/c1cccc(C(F)(F)F)c1)c1cc2c(s1)-c1ccccc1CC2,"inconclusive [inhibitor, single point]",
Cc1nc(C)c(C(=O)N2CCCC(CCC(=O)NCc3ccc(F)c(F)c3)C2)s1 (centres undefined),"inconclusive [inhibitor, single point]",
CC1CCC(C(C)C)C(OC(=O)CSc2nc(N)cc(=O)[nH]2)C1 (centres undefined),"inconclusive [inhibitor, single point]",

SMILES,Potency,"activity change, negative = growth inhibition"
O=S(=O)(C/C(=C/CO)S(=O)(=O)c1ccccc1)c1ccccc1,active: 2.31 µM,
S=c1[nH]nc(COc2ccccc2)n1-c1ccccc1,"inconclusive [inhibitor, single point]",
Cc1ccccc1Nc1nc(N)nc(COc2ccc(C#N)cc2)n1,,inactive: 0.307%
CCc1nonc1NC(=O)c1oc2ccc(F)cc2c1C,inactive,
COc1cc2c(cc1OC)C(c1ccccc1)=NCC2,"inconclusive [inhibitor, single point]",
COc1cccc(NC(=O)Nc2nnc(-c3ccccc3SCc3ccccc3)s2)c1,"inconclusive [inhibitor, single point]",
c1cc2[nH]snc2c2nc(C3CC3)nc12,active: 13 µM,
COc1ccc(-c2nnc(SC)nc2-c2ccc(OC)c([N+](=O)[O-])c2)cc1[N+](=O)[O-],"inconclusive [inhibitor, partial curve, poor fit]",
O=C(Nc1cccc(Cl)c1)Nc1ccc(Br)cc1F,active: 11.6 µM,
CCOC(=O)c1c(NC(=O)CCS(=O)(=O)c2ccccc2)sc2c1CC(C)(C)NC2(C)C,"inconclusive [inhibitor, single point]",
COC(CNC(=O)c1cn(C)c2ccc(S(=O)(=O)N(C)C3CCCCC3)cc2c1=O)OC,"inconclusive [inhibitor, partial curve]",
COc1ccc(CCNC(=O)C(=O)NCC(c2ccc3c(c2)OCO3)N2CCOCC2)cc1 (centres undefined),"inconclusive [inhibitor, single point]",
O=C(CCN1C(=O)NC2(CCCC2)C1=O)Nc1ccc(Sc2ccc(Br)cc2)cc1,"inconclusive [inhibitor, single point]",
COc1ccc(NC(=O)CCCNC(=O)c2ccc(Cl)cc2)cc1S(=O)(=O)N1CCCCC1,active: 20.6 µM,
CC(C)CCNC(=O)C(c1ccco1)N(C(=O)Cn1nnc2ccccc21)c1ccc2c(c1)OCO2 (centres undefined),"inconclusive [inhibitor, partial curve]",
Cc1c(Nc2cc(N3CCCCCC3)c3nonc3c2[N+](=O)[O-])c(=O)n(-c2ccccc2)n1C,,inactive: -22.2%
CSc1nnc2c(n1)OC1(Nc3ccccc3-2)C(=O)Nc2ccccc21 (centres undefined),active: 16.4 µM,
CCOc1cccc(NC(=O)c2ccc(S(=O)(=O)N3CCCC3)cc2)c1,"inconclusive [inhibitor, single point]",
CS(=O)(=O)Nc1ccccc1C(=O)Nc1cc(Cl)cc(Cl)c1,active: 18.4 µM,
COc1cccc(C(=O)NCCSc2c(C)[nH]c3ccccc23)c1OC,"inconclusive [inhibitor, single point]",
COc1ccccc1C(=O)NC1CCN(C(=S)NCCc2ccccc2)CC1,,inactive: -27.8%
CC(C)Oc1ccc(S(=O)(=O)N2CCOCC2)cc1NC(=O)CC1CCCC1,"inconclusive [inhibitor, single point]",
COc1ccc(-n2cc(-c3ccccc3)c3c(NC4CCCCC4)ncnc32)cc1,active: 11.6 µM,
CC(=O)Nc1ccc(CN2CCCC(CO)(Cc3cccc(Cl)c3)C2)cc1 (centres undefined),"inconclusive [inhibitor, single point]",
COc1ccc(C[C@H]2CN3C(=NC[C@@H]3C(C)C)N2C[C@H](C)NC(=O)c2ccc(C)c(Br)c2)cc1,active: 18.4 µM,

SMILES,Potency,"activity change, negative = growth inhibition"
CCC(=O)Nc1ccc(C(=O)NNC(=O)Cc2ccccc2)cc1,,inactive: -11%
Cc1onc(-c2ccccc2Cl)c1C(=O)NC(=S)Nc1ccc(C(C)C)cc1,"inconclusive [inhibitor, single point]",
COc1ccc(CC(=O)NCc2ccc(F)cc2)cc1S(=O)(=O)N1CCOCC1,,inactive: -7.66%
CCN(CC)CCC(c1cc(OC)c(OC)c(OC)c1)c1c(O)cc(OC)cc1OC (centres undefined),"inconclusive [inhibitor, single point]",
COc1ccc(CCNC(=O)Cc2nn(C)c(=O)c3ccccc23)cc1OC,"inconclusive [inhibitor, single point]",
Cc1ccc(CNC(=O)CNC(=O)[C@@H]2Cc3ccccc3CN2C(=O)OC(C)(C)C)cc1,"inconclusive [inhibitor, partial curve]",
Cc1cccc(NC(=O)c2cccc(C(=O)Nc3cccc(C)c3)n2)c1,,inactive: -21.3%
CCN1CCCC1CNC(=O)c1[nH]c2ccc(OC)cc2c1C (centres undefined),,inactive: 15%
Cn1c(=O)n(-c2ccc(C(C)(C)C#N)cc2)c2c3cc(-c4cnc5ccccc5c4)ccc3ncc21,active: 0.0501 µM,
COc1cccc(-c2ccc3ncnc(NCCNC(C)=O)c3c2)c1,"inconclusive [inhibitor, single point]",
Cc1onc(-c2ccccc2)c1NC(=O)N(CCC(=O)O)Cc1ccccc1,,inactive: 12.8%
CCOC(=O)C(Nc1ccc2ccccc2c1)C(=O)OCC,"inconclusive [inhibitor, single point]",
N#Cc1ccc(OCC(=O)NCCCn2ccnc2)cc1,,inactive: -0.476%
Cc1ccc(C(=O)Nc2ccccc2)cc1S(=O)(=O)N1CCN(C)CC1,,inactive: 8.34%
CC(C)(C)OC(=O)C(C1NC(C(=O)O)C(C)(C)S1)N1C(=O)c2ccccc2C1=O (centres undefined),,inactive: -8.89%
Cc1nn2c(NCc3cccnc3)c3c(nc2c1-c1ccccc1)CCC3,"inconclusive [inhibitor, single point]",
O=S(=O)(c1ccc(Br)s1)N1CCC(Cc2ccccc2)CC1,"inconclusive [inhibitor, single point]",
Cc1cccc(OCCCCn2c(C3CC(=O)N(c4ccccc4Cl)C3)nc3ccccc32)c1 (centres undefined),"inconclusive [inhibitor, single point]",
O=C(CCCc1ccccc1)NCc1ccccc1Cl,,inactive: -15.6%
O=C(c1ccc(Cl)cc1)c1cn[nH]c1-c1ccccc1O,"inconclusive [inhibitor, partial curve, poor fit]",
CSc1cccc(NC(=O)C2CCCN(c3ncnc4c3nc3n4CCCCC3)C2)c1 (centres undefined),active: 14.6 µM,
COc1ccc(/C=N/NC(=O)c2ccc(C)cc2)cc1CN1CCN(c2ccc(F)cc2)CC1,,inconclusive: -35.8% [inhibitor]
CC(=O)Nc1ccc2c(c1)nc(CCN1CCOCC1)n2C,,inconclusive: -19.9% [inhibitor]
CCOC(=O)c1c(C)[nH]c(C(=O)C(C)OC(=O)c2cccc(OCc3c(C)noc3C)c2)c1C (centres undefined),active: 18.4 µM,
